From article PMC4336329 (PLoS ONE, 2015)
Among all 310,000 compounds or so, about 2,200 (0.71%) showed an effect of 50% or more. Effects have a minus sign here. This is one part of the list.

Each compound was assayed against human ether-à-go-go-related gene (hERG) potassium channel (human, UniProt Q12809) (assay: primary screen, population patch clamp on CHO cells stably expressing hERG).
Chain of human ether-à-go-go-related gene (hERG) potassium channel (Q12809 whole entry, looked up): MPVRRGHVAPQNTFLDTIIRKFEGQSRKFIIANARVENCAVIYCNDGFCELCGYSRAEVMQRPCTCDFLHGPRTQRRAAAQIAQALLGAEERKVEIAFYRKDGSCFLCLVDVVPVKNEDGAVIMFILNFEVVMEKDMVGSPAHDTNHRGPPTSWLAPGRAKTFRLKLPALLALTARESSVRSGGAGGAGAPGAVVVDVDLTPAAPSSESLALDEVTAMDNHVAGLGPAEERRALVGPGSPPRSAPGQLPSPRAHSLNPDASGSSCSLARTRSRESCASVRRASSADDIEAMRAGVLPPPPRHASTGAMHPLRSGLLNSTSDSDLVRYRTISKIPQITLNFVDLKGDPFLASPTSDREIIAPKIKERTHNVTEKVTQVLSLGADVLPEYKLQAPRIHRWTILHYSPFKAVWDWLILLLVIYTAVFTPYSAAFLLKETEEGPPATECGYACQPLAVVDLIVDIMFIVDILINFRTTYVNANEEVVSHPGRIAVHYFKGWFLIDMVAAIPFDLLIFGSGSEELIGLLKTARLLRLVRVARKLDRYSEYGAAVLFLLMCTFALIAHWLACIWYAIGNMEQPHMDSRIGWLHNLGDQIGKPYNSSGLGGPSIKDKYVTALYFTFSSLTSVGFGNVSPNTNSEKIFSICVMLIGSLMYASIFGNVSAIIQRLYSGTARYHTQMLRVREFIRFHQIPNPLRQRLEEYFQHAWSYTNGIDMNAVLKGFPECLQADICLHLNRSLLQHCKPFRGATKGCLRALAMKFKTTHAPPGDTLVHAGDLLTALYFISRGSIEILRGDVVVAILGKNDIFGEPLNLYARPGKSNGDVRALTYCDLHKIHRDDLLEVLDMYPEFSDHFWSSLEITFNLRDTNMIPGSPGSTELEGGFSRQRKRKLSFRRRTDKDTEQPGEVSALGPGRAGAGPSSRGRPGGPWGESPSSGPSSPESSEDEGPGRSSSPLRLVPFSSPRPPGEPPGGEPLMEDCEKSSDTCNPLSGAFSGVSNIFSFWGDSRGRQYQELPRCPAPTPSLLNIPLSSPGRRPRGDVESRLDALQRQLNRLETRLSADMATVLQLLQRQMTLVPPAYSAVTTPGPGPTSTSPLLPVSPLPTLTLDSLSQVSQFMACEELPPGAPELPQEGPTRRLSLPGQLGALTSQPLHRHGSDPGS

Structure (SMILES) | hERG current change (%, negative = inhibition) at 1uM [%]
Cc1cccc(NC(=O)C2C3C=CC(O3)C2C(=O)O)c1 (stereo not drawn) | 8.1
CCN(CC)C(=O)C1=C(C)Nc2ncnn2C1c1cccnc1 (stereo not drawn) | 9.03
COc1ccccc1NC(=O)OC(C)c1ccc(Cl)cc1 (stereo not drawn) | -2.34
Cc1cc(C)c(C(=O)CN2CCOCC2)c(C)c1.Cl | 7.67
Fc1cccc(Nc2ncnc3sccc23)c1 | 14.2
Cn1c(CCN2CCCCCC2)nc2cc(NC(=O)Nc3ccccc3)ccc21 | -12.2
CSc1ccccc1C(=O)NCCOc1cccc(C)c1 | 19.4
CCc1ccc(NC(=O)Nc2ccon2)cc1 | 12.2
Cc1cccc(C)c1NC(=S)N1CCOCC1 | 14.4
O=C(NC1CCCCCC1)c1ccc(=O)n(Cc2ccccc2)n1 | 10.3
O=C(c1cccc(S(=O)(=O)N2CCCC2)c1)N(Cc1ccco1)C1CCS(=O)(=O)C1 (stereo not drawn) | 6.99
NS(=O)(=O)c1ccc(NC(=O)C2C3C=CC(C3)C2C(=O)O)cc1 (stereo not drawn) | 19.1
O=P(O)(CCc1ccccc1)CN1CCCCC1 | 8.63
COc1ccccc1OCc1nc2ccccc2s1 | 11.8
O=C(CCC(=O)N1CCCCC1)Nc1ccc(Cl)c(Cl)c1 | 11.1
CCCCCCC(=O)c1c([O-])n(-c2ccc(OC)cc2)c(=O)[nH]c1=O.C[NH+](C)C | 12.3
COCCN(CCOC)C(=O)c1ccc(NS(=O)(=O)c2ccc3[nH]c(=O)[nH]c3c2)cc1 | 20
CC1COc2ccccc2N1C(=O)c1ccccc1Cl (stereo not drawn) | 2.72
CCn1c(SCC(=O)N2CCCC(C)C2)nc2c1c(=O)n(C)c(=O)n2C (stereo not drawn) | 12.4
O=[N+]([O-])c1ccccc1/C=C/CN1CCN(Cc2ccc3c(c2)OCO3)CC1 | 3.7
Cc1ccccc1CN1CCN(CCCc2ccccc2)C(CCO)C1 (stereo not drawn) | -38
CCOc1ccccc1/C=C/c1nc2ccccc2[nH]c1=O | 14.7
FC(F)(F)c1cccc(Sc2nc(-c3ccccc3)nnc2C(F)(F)F)c1 | 10.6
CC(NC(=O)[C@H](C)NC(=O)c1ccco1)c1ccc(S(N)(=O)=O)cc1 (stereo partly drawn) | 15.5
CN(C)c1ccc(/C=C/C(=O)c2cc(Cl)ccc2O)cc1 | 9.09
C=CC[C@@H](C)CC(=O)C(CCCN=[N+]=[N-])SOOc1ccccc1 (stereo partly drawn) | 11.2
Cc1ccc(NC(=O)c2cc(=O)[nH]c3ccccc23)cc1 | 18.6
